Measured values: PubChem BioAssay AID686979 (National Center for Advancing Translational Sciences (NCATS), 2013)
Where “and” joins values, the source holds several entries; their conditions need not be identical. Equal values may be shown once. Screen size: about 420,000 compounds; about 50,000 (12%) were called active. Inconclusive means that the source gave no clear call. Such entries were picked first, then a sample of the others. Calls come from the whole dose curve; as a rule, active = well fitted inhibition curve with a large enough effect; inconclusive = small, poorly fitted or top-dose-only effect; inactive = flat fitted curve, though single readings scatter. Potencies of inconclusive entries are doubtful fits and often do not repeat. More than one record can exist for a structure, and the calls need not agree.

assay: qHTS for Inhibitors of human tyrosyl-DNA phosphodiesterase 1 (TDP1): qHTS in cells in presence of CPT; settings: chicken DT40 Tdp1-/-;hTDP1 cells + 20 nM CPT, ATP luminescence, 48 h; activity change, negative = growth inhibition: at 46.2 µM (top of the series); note: nearly all actives have a fitted effect of over 55% in size
In short: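 Chicken DT40 Tdp1-/- cells complemented with human TDP1, 400 cells/well, exposed to compounds plus 20 nM camptothecin for at least 48 h at 37 C; viability read as ATP content by CellTiter-Glo luminescence.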
% is set by controls: 0 for no effect and ±100 for the full control effect; potency is the fitted concentration of half-maximal effect; tags give direction and shape of the fitted curve.

Compound | activity change, negative = growth inhibition | Potency
CC(C)CN(C(=O)CN1C(=O)NC(c2ccccc2)(c2ccccc2)C1=O)C1CCS(=O)(=O)C1 (configuration not stated) | inactive: 0.518% | –
CN(CC(=O)Nc1ccccc1Cl)C(=O)c1cccc(S(=O)(=O)N2CCN(Cc3ccccc3)CC2)c1 | – | active: 11.6 µM
COc1ccc(CN2C(=O)CCCc3ccccc32)cc1 | – | inconclusive: 25.9 µM [inhibitor, single point]
COc1cccc(NC(=O)/C=C/c2ccc([N+](=O)[O-])cc2)c1 | inactive: -8.74% | –
N/C(CN1CCCC1=O)=N\OC(=O)c1ccccc1Cl | inactive: -12.4% | –
Cc1cc(C)nc(Nc2n[nH]c(-c3cccc4ccccc34)n2)n1 | – | inconclusive: 29.1 µM [inhibitor, single point]
CCOC(=O)c1ccc2c(c1)N(Cc1cc(C)ccc1C)C(=O)c1ccccc1S2(=O)=O | – | inconclusive: 20.6 µM [inhibitor, single point]
O=C(NNC1=NCCCCC1)c1cccc([N+](=O)[O-])c1 | inactive: 7.3% | –
NC(=O)c1ccc(-n2nnnc2SCC(=O)Nc2ccccc2-c2ccccc2)cc1 | – | inconclusive: 20.6 µM [inhibitor, single point]
C=CCn1c(=O)c2ccc(C(=O)NCc3ccccc3)cc2n(Cc2cccc(Cl)c2)c1=O | – | inconclusive: 10.3 µM [inhibitor, partial curve, poor fit]
CC(C)C[C@H](NC(=O)c1ccc(OC2CCN(C(=O)C3CC3)CC2)cc1)C(N)=O | – | inconclusive: 8.2 µM [inhibitor, partial curve]
COc1ccc(CNC(=O)c2cc(S(=O)(=O)N3CCCCC3)ccc2Cl)cc1OC | – | inconclusive: 20.6 µM [inhibitor, single point]
Cc1c(S(=O)(=O)NC2CCCCC2)c(=O)n(C)c(=O)n1C | inactive: 22.6% | –
Cc1cc(C)c2nc(N3CCCN(C(=O)c4ccco4)CC3)c(C#N)cc2c1 | – | inconclusive: 20.6 µM [inhibitor, single point]
Cc1ccc2c(c1)NC(=O)C(CC(=O)N(C)Cc1ccccc1)O2 (configuration not stated) | inactive: -24.2% | –
CCOC(=O)C(NCCc1ccc(F)cc1)(NC(=O)CC)C(F)(F)F (configuration not stated) | inactive: 5.67% | –
CC12CCC(O)CC1=CCC1C2CCC2(C)C1CCC21CCC(=O)O1 (configuration not stated) | – | inconclusive: 29.1 µM [inhibitor, single point]
O=C(Nc1ccc(F)cc1)c1cccnc1 | – | active: 9.2 µM
O=[N+]([O-])c1nn(-c2ccc(Cl)cc2)n(O)c1=NCc1ccccc1 | – | active: 10.3 µM
CCn1c(=O)c([N+](=O)[O-])c(Cl)c2ccccc21 | – | active: 2.91 µM
O=[N+]([O-])c1cccc(-c2nnc(-c3ccccc3F)o2)c1 | inactive: -10.8% | –
Cc1ccccc1C(=O)N1CCC(C(=O)Nc2ccc(S(=O)(=O)N(C)C(C)C)cc2)CC1 | – | active: 14.6 µM
O=C(COn1nnc2ccc(Cl)cc21)NC1CCS(=O)(=O)C1 (configuration not stated) | inactive: 11.8% | –
O=C(Nc1cccn(Cc2c(Cl)cccc2Cl)c1=O)c1ccc(Cl)cc1 | – | inconclusive: 23.1 µM [inhibitor, single point]

Compound | activity change, negative = growth inhibition | Potency
COc1cc2c(C(=O)N3CCN(c4ccccc4C)CC3)c(C)oc2cc1Br | – | inconclusive: 29.1 µM [inhibitor, single point]
CC1CCN(S(=O)(=O)c2ccc(-c3nnc(SCc4cccnc4)o3)cc2)CC1 | – | inconclusive: 29.1 µM [inhibitor, single point]
OCc1ccccc1-c1ccc2nccn2c1 | inactive: -14.9% | –
CC(=O)c1ccc(NC(=O)N2CCN(c3ccc(C)cc3)C(C)C2)cc1 (configuration not stated) | – | inconclusive: 20.6 µM [inhibitor, single point]
Cc1ccsc1CN(Cc1ccco1)c1cnc(S(C)(=O)=O)nc1C(=O)Nc1ccc(Cl)cc1 | – | inconclusive: 23.1 µM [inhibitor, single point]
Cn1c(=O)oc2cc(S(=O)(=O)CCC(=O)NCc3ccc(Cl)cc3)ccc21 | inactive: -5.21% | –
ClC(=C\c1ccccc1)/C=N/N1CCN(c2ccccn2)CC1 | – | inconclusive: 10.3 µM [inhibitor, partial curve]
Clc1cccc(Nc2ncnc3c2nc2n3CCCCC2)c1 | – | active: 8.2 µM
Cc1c(S(=O)(=O)N2CCc3ccccc3C2)c(=O)n(C)c(=O)n1C | – | inconclusive: 29.1 µM [inhibitor, single point]
CCOCCn1ccc2c(OCC(=O)Nc3cc(C)cc(C)c3)cccc2c1=O | inactive: -29.8% | –
Cc1nn(C)c(C)c1CNC(=O)c1nn2c(c1Cl)NC(c1cccs1)CC2C(F)(F)F (configuration not stated) | – | active: 16.4 µM
COc1ccc(-c2cn3nc(SCC(=O)Nc4cccc(C)c4C)ccc3n2)cc1 | – | active: 14.6 µM
Cc1ccc(NC(=O)N2CC=C(c3c[nH]c4ccccc34)CC2)cc1Cl | – | active: 18.4 µM
COc1ccccc1C(c1nnnn1CCc1ccccc1)N1CCCCCC1 (configuration not stated) | – | inconclusive: 20.6 µM [inhibitor, single point]
CC1CCN(C(=O)CN2CC(C)Sc3ccccc32)CC1 (configuration not stated) | – | inconclusive: 10.3 µM [inhibitor, partial curve]
COc1ccc(Cc2nc3ccccc3n2CC(=O)N/N=C/c2ccc(C)cc2O)cc1OC | – | active: 2.06 µM
COc1cccc(-c2cc(NCCc3c[nH]c4ccc(OC)cc34)ncn2)c1 | – | inconclusive: 18.4 µM [inhibitor, single point]
CCCS(=O)(=O)N1CCC(C(=O)NC2CCCC(C)C2C)CC1 (configuration not stated) | – | inconclusive: 29.1 µM [inhibitor, single point]
Nc1ccc(Sc2ccccc2Cl)nc1 | inactive: 1.27% | –
COc1ccc(Nc2nc3ccccc3n3c(N)nnc23)cc1 | – | inconclusive: 29.1 µM [inhibitor, single point]
COc1ccc(CC(=O)Nc2nccs2)cc1OC | inactive: -13.7% | –
CCOc1ccc(C(=O)Nc2ccc(N3CCN(S(C)(=O)=O)CC3)cc2)cc1[N+](=O)[O-] | inactive: -16.4% | –
COc1cccc(NC(=O)N(CCCN2CCOCC2)C(C)c2cc3ccccc3o2)c1 (configuration not stated) | – | inconclusive: 10 µM [inhibitor, partial curve]
O=C(NC1CC1)C1=C[C@@H](C2CCCCC2)C[C@@H](OCc2ccc(CO)cc2)O1 | – | inconclusive: 29.1 µM [inhibitor, single point]

Compound | activity change, negative = growth inhibition | Potency
Cc1ccc(OCc2cc(C(=O)N(CCO)Cc3cccs3)no2)cc1C | – | inconclusive: 29.1 µM [inhibitor, single point]
CC(=O)n1cc([C@@H]2C=C(C(=O)Nc3ccccc3)O[C@H](OCc3ccc(CO)cc3)C2)c2ccccc21 | – | active: 23.1 µM
Cc1ccc(NS(=O)(=O)c2ccc(-n3cccn3)cc2)c(Br)c1 | – | inactive and active: 18.4 µM
COc1ccc(/C=N/NC(=O)c2c([N+](=O)[O-])c(C)nn2C)cc1 | inactive: 0.852% | –
O=C(Nc1ccccn1)c1ccc(CN(c2ccccc2)S(=O)(=O)c2ccccc2)cc1 | – | inconclusive: 29.1 µM [inhibitor, single point]
COc1ccc(C(C(=O)NC2CCCC2)N(C(=O)c2snc(C(N)=O)c2N)c2cccc(O)c2)cc1 (configuration not stated) | inconclusive: -30.3% [inhibitor] | –
N#C/C(=C/c1cccc([N+](=O)[O-])c1)c1nnc2n1CCCCC2 | – | inconclusive: 29.1 µM [inhibitor, single point]
O=CNc1ccc2c(c1)Cc1cccc(NC=O)c1-2 | inactive: 15.4% | –
O=C(Nc1ccc2c(c1)OCO2)NC1(C(F)(F)F)Oc2ccccc2O1 | inactive: -26.6% | –
CCC(Nc1ccc(-c2nc(-c3ccccn3)no2)cc1[N+](=O)[O-])c1ccccc1 (configuration not stated) | – | inconclusive: 23.1 µM [inhibitor, single point]
COC(=O)C[C@@H]1OC[C@H](C)N1S(=O)(=O)c1ccc(C)cc1 | inactive: -2.56% | –
COc1cc2c(cc1OC)C(COc1cc(C)cc(C)c1)N(C(=O)C(C)(C)C)CC2 (configuration not stated) | – | inconclusive: 18.4 µM [inhibitor, single point]
CCCCCCCCN1[C@@H](CC(=O)O)c2cc(C(F)(F)F)ccc2S1(=O)=O | – | inconclusive: 35.5 µM [inhibitor, single point] and inconclusive: 18.4 µM [inhibitor, single point]
Cc1ccc2nc(SCC(=O)Nc3ccc4c(c3)OCCO4)nc(=O)n2c1 | – | inconclusive: 25.9 µM [inhibitor, single point]
COc1ccc(CC(=O)Nc2ccc(S(=O)(=O)N3CCCCC3)cc2)cc1OC | – | inconclusive: 29.1 µM [inhibitor, single point]
COc1ccc(NC(=O)n2ncc3c(C)cccc32)cc1OC | – | inconclusive: 29.1 µM [inhibitor, single point]
COc1ccc(/C(C)=N/NC(=O)c2ccccc2N)cc1 | inactive: 28.6% | –
CCc1nnc(SCC(=O)N2CCCC(N3CCN(c4ccccc4C)CC3)C2)o1 (configuration not stated) | – | inconclusive: 29.1 µM [inhibitor, single point]
Cc1ccc(C(c2sc3nc(-c4ccco4)nn3c2O)N2CCN(c3ccc(F)cc3)CC2)cc1 (configuration not stated) | inactive: -0.831% | –
CCCCCCOC(=O)C(C#N)c1nc2ccccc2nc1N1CCN(CC)CC1 (configuration not stated) | – | inconclusive: 23.1 µM [inhibitor, single point]
COc1ccc(CCC(C)Nc2ccc(F)cc2)cc1 (configuration not stated) | inactive: 5.32% | –
COc1ccccc1OCC(=O)NNC(=O)C1CCN(c2ncnc3sc(C)c(C)c23)CC1 | – | inconclusive: 29.1 µM [inhibitor, single point]
Clc1ccccc1-c1nc2ccccc2c2nc3ccccc3n12 | – | inconclusive: 25.9 µM [inhibitor, single point]
CCCNC(=O)c1ccc(N2CCC3(CC2)CC(c2cccc(Br)c2)=NO3)c(NC(=O)c2cccc(C)c2)c1 | – | inconclusive: 29.1 µM [inhibitor, single point]
